Data on one molecule can be found in paper PMC13288828.

The assay has as its target T1, Flag-tagged IRF3 (Flag-IRF3) (UniProt Q14653).
T1 sequence: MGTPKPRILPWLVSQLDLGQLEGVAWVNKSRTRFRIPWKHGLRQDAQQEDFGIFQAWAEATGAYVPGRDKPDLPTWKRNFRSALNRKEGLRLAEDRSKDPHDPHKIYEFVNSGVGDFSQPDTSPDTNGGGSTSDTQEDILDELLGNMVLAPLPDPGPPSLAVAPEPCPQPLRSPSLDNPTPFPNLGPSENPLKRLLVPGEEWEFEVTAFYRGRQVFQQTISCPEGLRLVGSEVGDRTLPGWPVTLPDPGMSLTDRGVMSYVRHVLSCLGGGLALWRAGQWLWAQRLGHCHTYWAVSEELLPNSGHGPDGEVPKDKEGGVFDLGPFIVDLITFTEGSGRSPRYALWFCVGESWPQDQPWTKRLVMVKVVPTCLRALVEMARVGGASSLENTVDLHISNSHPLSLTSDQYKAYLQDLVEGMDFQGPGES
The assay can be described thus: co-IP.

Results are given in words; binding and its absence hold for the method and conditions named. In cells and extracts the contact can be indirect. Some binding calls cover weakened binding; strength is not graded here. Sequences can lack the tags named with a protein.

B1: HA-TBK1 (enzyme, UniProt Q9UHD2 1-729)
chain: MQSTSNHLWLLSDILGQGATANVFRGRHKKTGDLFAIKVFNNISFLRPVDVQMREFEVLKKLNHKNIVKLFAIEEETTTRHKVLIMEFCPCGSLYTVLEEPSNAYGLPESEFLIVLRDVVGGMNHLRENGIVHRDIKPGNIMRVIGEDGQSVYKLTDFGAARELEDDEQFVSLYGTEEYLHPDMYERAVLRKDHQKKYGATVDLWSIGVTFYHAATGSLPFRPFEGPRRNKEVMYKIITGKPSGAISGVQKAENGPIDWSGDMPVSCSLSRGLQVLLTPVLANILEADQEKCWGFDQFFAETSDILHRMVIHVFSLQQMTAHKIYIHSYNTATIFHELVYKQTKIISSNQELIYEGRRLVLEPGRLAQHFPKTTEENPIFVVSREPLNTIGLIYEKISLPKVHPRYDLDGDASMAKAITGVVCYACRIASTLLLYQELMRKGIRWLIELIKDDYNETVHKKTEVVITLDFCIRNIEKTVKVYEKLMKINLEAAELGEISDIHTKLLRLSSSQGTIETSLQDIDSRLSPGGSLADAWAHQEGTHPKDRNVEKLQVLLNCMTEIYYQFKKDKAERRLAYNEEQIHKFDKQKLYYHATKAMTHFTDECVKKYEAFLNKSEEWIRKMLHLRKQLLSLTNQCFDIEEEVSKYQEYTNELQETLPQKMFTASSGIKHTMTPIYPSSNTLVEMTLGMKKLKEEMEGVVKELAENNHILERFGSLTMDGGLRNVDCL
On to B1, for which the binding entry was “binds”.
